Part of at least one peptide drawing is inferred or uncertain, most often the ends. Starred links: 1 amine or outer side, 2 acyl side, 3 side chain; linkers in the order of their positions; H or OH if unused. Positions of bridges follow the written chain, without caps; N, C: chain ends. Non-standard residues stand in square brackets, D forms with d. Residues, ends and D or L forms follow the SMILES beside them. X1 = O=C(CC1(S[*:2])CCCCC1)[*:1]; X2 = O=C(CC1(S[*:2])CCCC1)[*:1]; Nva = CCC[C@H](N)C(=O)O; Abu = CC[C@H](N)C(=O)O
Tests used:
[1] = tested on: antidiuretic response to arginine vasopressin (ADH); assay: Anti-antidiuretic: antagonism of the antidiuretic response to subsequent injections of vasopressin; type: in vivo, rats
Protocol: Activity as antidiuretic agonists was determined by intravenous injection of the compounds being evaluated in ethanol-anesthesized water-loaded rats in accordance with Sawyer, Endocrinology, vol. 63 (1958) at 694. Antagonism of the response to subsequent injections of vasopressin was tested as described by Sawyer et al., Science, vol. 212 (1981) at 49.
(§1) Antagonistic potencies were determined and expressed as "effective doses" and pA2 values. The "effective dose" is defined as the dose (in nanomoles per kilogram) that reduces the response seen from 2x units of agonist injected 20 min after the dose of antagonist to the response with 1x units of agonist. Estimated in vivo "pA2 " values represent the negative logarithms of the effective doses, divided by the estimated volume of distribution (67 ml/kg).

[2] = tested on: vasopressor response to arginine vasopressin; assay: Antivasopressor: antagonism to the vasopressor response (Dyckes et al.); type: in vivo; conditions: for Antivasopressor Potency ED / AD/VP: Table 2; for Antivasopressor Potency ED / Antivasopressor ED: effective dose; for AD/VP: ratio, values fit antivasopressor ED / anti-antidiuretic ED; for Antivasopressor ED / Antivasopressor pA2: Table 1; for Antivasopressor pA2: estimated in vivo pA2
Protocol: Antagonism to the vasopressor response was estimated in accordance with Dyckes et al., J. Med. Chem., vol. 17 (1974) at 969. The values are expressed as pA2 values, defined as in Schild et al., Br. J. Pharmacol., vol. 2 (1947) at 189.
as §1

[3] = Table 1, dose reducing response to 2x units of agonist, injected 20 min later, to response with 1x units

Row | Compound | Anti-Antidiuretic ED ([1]; Table 2, effective dose) [nmol/kg] | Antivasopressor Potency ED [2] [nmol/kg] | AD/VP [2] | Anti-Antidiuretic ED [1, 3] | Anti-Antidiuretic pA2 ([1]; Table 1, estimated in vivo pA2, volume of distribution 67 ml/kg) | Antivasopressor ED [2] [nmol/kg] | Antivasopressor pA2 [2]
1 | CC[C@@H]1NC(=O)[C@H](Cc2ccccc2)NC(=O)[C@@H]([C@H](C)CC)NC(=O)CC2(CCCCC2)SSC[C@@H](C(=O)N2CCC[C@H]2C(=O)N[C@@H](CCCNC(=N)N)C(=O)NCC(N)=O)NC(=O)[C@H](CC(N)=O)NC1=O [d(CH2)5 D-Ile^2 Abu^4 AVP, [1-(β-mercapto-β,β-cyclopentamethylenepropionic acid), 2-D-isoleucine, 4-α-aminobutyric acid]-arginine vasopressin] ([dI]F[Abu]NCPRG-NH2; linker N-5 via X1) | 0.41 ± 0.05 | 12 ± 1.3 | 29 |  |  |  | 
2 | CCOc1ccc(C[C@H]2NC(=O)CC3(CCCC3)SSC[C@@H](C(=O)N3CCC[C@H]3C(=O)N[C@@H](CCCNC(=N)N)C(=O)NCC(N)=O)NC(=O)[C@H](CC(N)=O)NC(=O)[C@H](C(C)C)NC(=O)[C@H](Cc3ccccc3)NC2=O)cc1 [d(CH2)4 D-Tyr(Et)^2 VAVP] ([dY](Et)FVNCPRG-NH2; linker N-5 via X2) |  |  |  | 0.72 ± 0.17 nmol/kg | 8.04 ± 0.11 | 0.50 ± 0.07 | 8.14 ± 0.07
3 | CC[C@H](C)[C@@H]1NC(=O)[C@H](Cc2ccccc2)NC(=O)[C@@H](Cc2ccccc2)NC(=O)CC2(CCCCC2)SSC[C@@H](C(=O)N2CCC[C@H]2C(=O)N[C@@H](CCCNC(=N)N)C(=O)NCC(N)=O)NC(=O)[C@H](CC(N)=O)NC1=O [d(CH2)5 D-Phe^2 Ile^4 AVP, [1-(β-mercapto-β,β-cyclopentamethylenepropionic acid), 2-D-phenylalanine, 4-isoleucine]-arginine vasopressin] ([dF]FINCPRG-NH2; linker N-5 via X1) | 0.46 ± 0.07 | 0.99 ± 0.12 | 2.2 |  |  |  | 
4 | N=C(N)NCCC[C@H](NC(=O)[C@@H]1CCCN1C(=O)[C@@H]1CSSC2(CCCCC2)CC(=O)N[C@H](Cc2ccccc2)C(=O)N[C@@H](Cc2ccccc2)C(=O)N[C@@H](CCC(N)=O)C(=O)N[C@@H](CC(N)=O)C(=O)N1)C(=O)NCC(N)=O [d(CH2)5 D-Phe^2 AVP, [1-(β-mercapto-β,β-cyclopentamethylenepropionic acid), 2-D-phenylalanine]-arginine vasopressin] ([dF]FQNCPRG-NH2; linker N-5 via X1) | 4.3 ± 0.6 | 0.30 ± 0.03 | 0.07 |  |  |  | 
5 | C[C@@H](O)[C@@H]1NC(=O)[C@H](Cc2ccccc2)NC(=O)[C@@H](Cc2ccccc2)NC(=O)CC2(CCCCC2)SSC[C@@H](C(=O)N2CCC[C@H]2C(=O)N[C@@H](CCCNC(=N)N)C(=O)NCC(N)=O)NC(=O)[C@H](CC(N)=O)NC1=O [d(CH2)5 D-Phe^2 Thr^4 AVP, [1-(β-mercapto-β,β-cyclopentamethylenepropionic acid), 2-D-phenylalanine, 4-threonine]-arginine vasopressin] ([dF]FTNCPRG-NH2; linker N-5 via X1) | 1.7 ± 0.4 | 2.9 ± 0.5 | 1.7 |  |  |  | 
6 | COc1ccc(C[C@@H]2NC(=O)CC3(CCCCC3)SSC[C@H](C(=O)N3CCC[C@H]3C(=O)N[C@@H](CCCNC(=N)N)C(=O)NCC(N)=O)NC(=O)[C@H](CC(N)=O)NC(=O)[C@H](CCC(N)=O)NC(=O)[C@H](Cc3ccccc3)NC2=O)cc1 [d(CH2)5 Tyr(Me)^2 D-Cys^6 AVP] (Y(Me)FQN[dC]PRG-NH2; linker N-5 via X1) |  |  |  | ~ 194 nmoles/Kg |  | 0.96 ± 0.24 | 
7 | CC(C)[C@@H]1NC(=O)[C@H](Cc2ccccc2)NC(=O)[C@@H](Cc2ccccc2)NC(=O)CC2(CCCCC2)SSC[C@@H](C(=O)N2CCC[C@H]2C(=O)N[C@@H](CCCNC(=N)N)C(=O)NCC(N)=O)NC(=O)[C@H](CC(N)=O)NC1=O [d(CH2)5 D-Phe^2 VAVP] ([dF]FVNCPRG-NH2; linker N-5 via X1) | 0.67 ± 0.13 | 0.58 ± 0.04 | 0.9 |  |  |  | 
8 | CC[C@@H](C)[C@H]1NC(=O)CC2(CCCCC2)SSC[C@@H](C(=O)N2CCC[C@H]2C(=O)N[C@@H](CCCNC(=N)N)C(=O)NCC(N)=O)NC(=O)[C@H](CC(N)=O)NC(=O)[C@H](CC(C)C)NC(=O)[C@H](Cc2ccccc2)NC1=O [d(CH2)5 D-Ile^2 Leu^4 AVP, [1-(β-mercapto-β,β-cyclopentamethylenepropionic acid), 2-D-isoleucine, 4-leucine]-arginine vasopressin] ([dI]FLNCPRG-NH2; linker N-5 via X1) | 11 ± 2 | 12.2 |  |  |  |  | 
9 | CCC[C@@H]1NC(=O)[C@H](Cc2ccccc2)NC(=O)[C@@H](Cc2ccccc2)NC(=O)CC2(CCCCC2)SSC[C@@H](C(=O)N2CCC[C@H]2C(=O)N[C@@H](CCCNC(=N)N)C(=O)NCC(N)=O)NC(=O)[C@H](CC(N)=O)NC1=O [d(CH2)5 D-Phe^2 Nva^4 AVP, [1-(β-mercapto-β,β-cyclopentamethylenepropionic acid), 2-D-phenylalanine, 4-norvaline]-arginine vasopressin] ([dF]F[Nva]NCPRG-NH2; linker N-5 via X1) | 6.9 ± 0.09 | 1.4 ± 0.4 | 0.2 |  |  |  | 
10 | N=C(N)NCCC[C@H](NC(=O)[C@@H]1CCCN1C(=O)[C@@H]1CSSC2(CCCCC2)CC(=O)N[C@H](Cc2ccccc2)C(=O)N[C@@H](Cc2ccccc2)C(=O)N[C@@H](CCCCN)C(=O)N[C@@H](CC(N)=O)C(=O)N1)C(=O)NCC(N)=O [d(CH2)5 D-Phe^2 Lys^4 AVP, [1-(β-mercapto-β,β-cyclopentamethylenepropionic acid), 2-D-phenylalanine, 4-lysine]-arginine vasopressin] ([dF]FKNCPRG-NH2; linker N-5 via X1) | 4.5 ± 1.9 | 7.9 ± 2.6 | 1.7 |  |  |  | 
11 | CC(C)[C@@H]1NC(=O)[C@H](Cc2ccccc2)NC(=O)[C@@H](Cc2ccc(O)cc2)NC(=O)CC2(CCCCC2)SSC[C@@H](C(=O)N2CCC[C@H]2C(=O)N[C@@H](CCCNC(=N)N)C(=O)NCC(N)=O)NC(=O)[C@H](CC(N)=O)NC1=O [d(CH2)5 --D-TyrVAVP, [1-(β-mercapto-β,β-cyclopentamethylenepropionic acid), 2-D-tyrosine, 4-valine]-arginine vasopressin] ([dY]FVNCPRG-NH2; linker N-5 via X1) |  |  |  | 2.2 ± 0.2 nmol/kg |  | 0.29 ± 0.09 | 0.41 ± 0.11
12 | COc1ccc(C[C@H]2NC(=O)CC3(CCCCC3)SSC[C@@H](C(=O)N3CCC[C@H]3C(=O)N[C@@H](CCCNC(=N)N)C(=O)NCC(N)=O)NC(=O)[C@H](CC(N)=O)NC(=O)[C@H](CCC(N)=O)NC(=O)[C@H](Cc3ccccc3)NC2=O)cc1 [d(CH2)5 [D-Tyr(Me)^2]AVP, [1-(β-mercapto-β,β-cyclopentamethylenepropionic acid), 2-D-(O-methyl)tyrosine]-arginine vasopressin] ([dY](Me)FQNCPRG-NH2; linker N-5 via X1) |  |  |  | 7.3 ± 1.3 nmol/kg |  | 0.36 ± 0.02 | 
13 | CC(C)C[C@@H]1NC(=O)[C@H](Cc2ccccc2)NC(=O)[C@@H](Cc2ccccc2)NC(=O)CC2(CCCCC2)SSC[C@@H](C(=O)N2CCC[C@H]2C(=O)N[C@@H](CCCNC(=N)N)C(=O)NCC(N)=O)NC(=O)[C@H](CC(N)=O)NC1=O [d(CH2)5 D-Phe^2 Leu^4 AVP, [1-(β-mercapto-β,β-cyclopentamethylenepropionic acid), 2-D-phenylalanine, 4-leucine]-arginine vasopressin] ([dF]FLNCPRG-NH2; linker N-5 via X1) | 66 ± 19 | 1.3 ± 0.1 | 0.02 |  |  |  | 
14 | CC[C@@H](C)[C@H]1NC(=O)CC2(CCCCC2)SSC[C@@H](C(=O)N2CCC[C@H]2C(=O)N[C@@H](CCCNC(=N)N)C(=O)NCC(N)=O)NC(=O)[C@H](CC(N)=O)NC(=O)[C@H](C)NC(=O)[C@H](Cc2ccccc2)NC1=O [d(CH2)5 D-Ile^2 Ala^4 AVP, [1-(β-mercapto-β,β-cyclopentamethylenepropionic acid), 2-D-isoleucine, 4-alanine]-arginine vasopressin] ([dI]FANCPRG-NH2; linker N-5 via X1) | 1.70 ± 0.5 | 66 ± 5 | 39 |  |  |  | 
15 | CCOc1ccc(C[C@@H]2NC(=O)CC3(CCCCC3)SSC[C@@H](C(=O)N3CCC[C@@H]3C(=O)N[C@@H](CCCNC(=N)N)C(=O)NCC(N)=O)NC(=O)[C@H](CC(N)=O)NC(=O)[C@H](C(C)C)NC(=O)[C@H](Cc3ccccc3)NC2=O)cc1 [d(CH2)5 Tyr(Et)^2 D-Pro^7 VAVP] (Y(Et)FVNC[dP]RG-NH2; linker N-5 via X1) |  |  |  | 34.5 ± 7 nmol/kg |  | 0.45 ± 0.15 | 

From patent US4551445A, “Derivatives of arginine vasopressin antagonists” (The Medical College of Ohio, priority 1983, dated 1985)
